2 compounds from patent publication US9340533B2, “1,4-benzothiazepine-1-oxide derivative and pharmaceutical composition utilizing the same” (priority 2009, dated 2016) can be followed below.

The subject of the experiment is right atrium of the guinea pig. Description: tissue or blood. The note with it: Cavia porcellus, read-out: 50% inhibition (IC50) of right atrium contraction rate per minute.

Structures are written as SMILES.

As to `COc1ccc2c(c1)CN(C(=O)CCN1CCC(Cc3ccccc3)CC1)CC[S+]2[O-]` (centres unmarked) [compound [III], 4-[3-(4-benzylpiperidin-1-yl)propionyl]-7-methoxy-2,3,4,5-tetrahydro-1,4-benzothiazepine-1-oxide], the half-maximal inhibitory concentration (IC50) came to 35 µM.

Consider `COc1ccc2c(c1)CN(C(=O)CCN1CCC(Cc3ccc(O)cc3)CC1)CC[S+]2[O-]` (centres unmarked) [compound [IV], 4-{3-[4-(4-hydroxybenzyl)piperadin-1-yl]propionyl}-7-methoxy-2,3,4,5-tetrahydro-1,4-benzothiazepine-1-oxide], for which the IC50 was found to be 110 µM.
